# Experimental data: PubChem BioAssay AID720709 (National Center for Advancing Translational Sciences (NCATS), 2013)
# Values joined by “and” are separate entries in the source; they are usually repeats but may differ in a detail not shown here. Equal entries are not always repeated. In all, about 360,000 compounds went through this assay and about 520 (0.14%) were called active. This list was built around the results that the source calls inconclusive (neither active nor inactive); the mix of calls is not that of the screen. Calls follow the shape of the dose curve; as a rule, active = well fitted inhibition curve with a large enough effect; inconclusive = small, poorly fitted or top-dose-only effect; inactive = no such curve, though single readings can be large or run the other way. Where the call is inconclusive, the potency comes from a doubtful curve fit.
# Target: Rap guanine nucleotide exchange factor 3 (Homo sapiens) (UniProt O95398)
# Sequence of UniProt O95398 (O95398 whole entry, looked up): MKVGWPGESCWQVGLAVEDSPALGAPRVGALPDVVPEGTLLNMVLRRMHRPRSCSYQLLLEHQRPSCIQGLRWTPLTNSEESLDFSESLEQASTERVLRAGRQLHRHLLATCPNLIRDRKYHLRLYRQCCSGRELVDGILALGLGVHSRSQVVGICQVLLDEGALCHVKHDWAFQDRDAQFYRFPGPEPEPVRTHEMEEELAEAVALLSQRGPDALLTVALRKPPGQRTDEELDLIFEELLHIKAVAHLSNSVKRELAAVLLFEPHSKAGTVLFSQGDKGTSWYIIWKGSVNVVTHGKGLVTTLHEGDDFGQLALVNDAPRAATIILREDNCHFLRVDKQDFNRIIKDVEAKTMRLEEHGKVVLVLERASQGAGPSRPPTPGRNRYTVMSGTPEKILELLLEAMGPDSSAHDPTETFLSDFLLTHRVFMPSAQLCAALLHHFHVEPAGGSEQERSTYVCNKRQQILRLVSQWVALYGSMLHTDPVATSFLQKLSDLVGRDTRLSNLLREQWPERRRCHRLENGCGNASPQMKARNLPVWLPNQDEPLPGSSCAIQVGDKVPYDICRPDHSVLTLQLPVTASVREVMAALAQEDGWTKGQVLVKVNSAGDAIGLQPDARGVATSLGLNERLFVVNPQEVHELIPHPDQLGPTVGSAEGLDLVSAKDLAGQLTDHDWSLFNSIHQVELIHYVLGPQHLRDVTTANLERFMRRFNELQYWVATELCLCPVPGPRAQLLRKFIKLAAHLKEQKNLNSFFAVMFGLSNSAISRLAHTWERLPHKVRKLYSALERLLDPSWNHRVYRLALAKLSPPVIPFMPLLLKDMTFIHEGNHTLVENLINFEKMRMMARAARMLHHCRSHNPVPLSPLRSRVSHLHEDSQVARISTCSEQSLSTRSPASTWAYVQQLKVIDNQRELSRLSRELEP
# Assay: qHTS for Antagonist of cAMP-regulated guanine nucleotide exchange factor 3 (EPAC1): primary screen; also: nearly all actives have a fitted effect of over 50% in size
# Conditions: EPAC1 GEF assay, Rap1b-BODIPY-GDP exchange fluorescence; series mostly up to 115 µM
# Potency is read from the fitted curve at half-maximal effect; tags tell the direction and shape of the fitted curve.
row,SMILES,Potency
1,COC(=O)C1=C(c2cccc(OCc3ccccc3)c2)C[C@@H]2CC[C@H]1N2C(=O)NCc1ccc(OC)cc1,inactive
2,N#CC(C#N)=NNc1ccc([N+](=O)[O-])cc1,"inconclusive: 39.8 µM [inhibitor, full curve]"
3,O=C1NC(=O)N(Cc2ccc(F)cc2)C(=O)/C1=C\C=C\c1ccco1,"inconclusive: 17.8 µM [inhibitor, full curve]"
4,CS(=O)(=O)c1ccc(C2=C(CNC(=O)c3ccc([N+](=O)[O-])cc3)[C@H]3CC[C@@H](C2)N3Cc2ccccc2)cc1,inactive
5,CC(C)c1ccc(N2C(=O)NC(=O)/C(=C/C=C/c3ccco3)C2=O)cc1,"inconclusive: 50.1 µM [inhibitor, partial curve]"
6,O=C1NC(=O)N(Cc2ccccc2Cl)C(=O)/C1=C/c1cccs1,"inconclusive: 50.1 µM [inhibitor, partial curve]"
7,COc1ccc(/C=N\NC(=O)c2cccc(F)c2)cc1COc1ccccc1,"inconclusive: 39.8 µM [inhibitor, partial curve, poor fit]"
8,Cc1onc(-c2c(Cl)cccc2Cl)c1C(=O)Nc1ccc2c(C(F)(F)F)cc(=O)oc2c1,"inconclusive: 44.7 µM [inhibitor, partial curve]"
9,CCCCCCCCn1sccc1=O,inactive
10,O=C(CN1C(=O)S/C(=C\C=C\c2ccccc2)C1=O)Nc1ccccc1C(=O)O,"inconclusive: 89.1 µM [inhibitor, partial curve, poor fit]"
11,COc1ccc(C[C@@H]2c3cc(O)c(OC)cc3CCN2C)cc1O,inactive
12,COC(=O)C1=C(c2ccc(Cl)c(C(F)(F)F)c2)C[C@@H]2CC[C@H]1N2C(=O)NCCOc1ccc(OC)cc1,"inconclusive: 3.16 µM [inhibitor, full curve, poor fit]"
13,O=C1C(=Cc2cn(-c3ccccc3)nc2-c2ccc(OCc3ccc(Cl)cc3)cc2)SC(=S)N1CCS(=O)(=O)O,"inconclusive: 14.1 µM [inhibitor, partial curve, poor fit]"
14,CCC(=Nc1ccccc1N)c1c(O)[nH]c(=O)[nH]c1=O,"inconclusive: 50.1 µM [inhibitor, partial curve]"
15,O=C1NC(=S)NC(=O)C1=Cc1ccc(Br)s1,"inconclusive: 56.2 µM [inhibitor, partial curve]"
16,COc1ccccc1-n1c(CNCC2CCCO2)nc2ccccc2c1=O (stereo not drawn),"inconclusive: 89.1 µM [inhibitor, single point]"
17,COC(=O)C1=C(C)NC(=S)NC1c1ccc(N(CCCl)CCCl)cc1Cl (stereo not drawn),inactive
18,C/C(=C/CCC(C)[C@H]1CC[C@@]2(C)C3=C(CC[C@]12C)[C@@]1(C)CCC(=O)C(C)(C)[C@@H]1CC3)C(=O)O (stereo partly drawn),"inconclusive: 100 µM [inhibitor, partial curve]"
19,CCCCCn1cc(C(=O)C(=O)N2CCOCC2)c2ccccc21,inactive
20,c1cc2c(cc1NC1=NCCO1)CCCC2,inactive
21,C[C@H]1COC2=C1C(=O)C(=O)c1c2ccc2c1CCCC2(C)C,active: 44.7 µM

row,SMILES,Potency
1,Cc1nc2cc(C(F)(F)F)ccc2n1C1CCN(Cc2nnnn2Cc2cccs2)CC1,inactive
2,CC1([N+](=O)[O-])COP(=O)(Nc2ccccc2F)OC1 (stereo not drawn),"inconclusive: 39.8 µM [inhibitor, single point]"
3,NC(=O)c1cn(C2CCCCC2)c2ccccc2c1=O,inactive
4,CCOC(=O)[C@@H]1[C@H]2COc3ccc(Br)cc3[C@@H]2N2C(=O)N(c3cccc(C)c3)C(=O)[C@]12C,"inconclusive: 50.1 µM [inhibitor, partial curve]"
5,COc1cccc(-n2c(/C=C/c3ccc(O)c(O)c3)nc3ccccc3c2=O)c1,"inconclusive: 50.1 µM [inhibitor, partial curve, poor fit]"
6,CC12CC(=O)C3C(CCC4CC(=O)C=CC43C)C1CCC2=O (stereo not drawn),inactive
7,Clc1cccc(N2Cc3cc(-c4ccccc4)ccc3-n3nncc3C2)c1,"inconclusive: 50.1 µM [inhibitor, partial curve]"
8,CN(C)[C@@H]1C(=O)C(C(N)=O)=C(O)[C@@]2(O)C(=O)C3=C(O)c4c(O)cccc4[C@@](C)(O)C3[C@H](O)C12 (stereo partly drawn),"inconclusive: 79.4 µM [inhibitor, partial curve] and inconclusive: 25.1 µM [inhibitor, full curve]"
9,COc1ccc(N2C(=O)NC(=O)/C(=C\c3ccc([N+](=O)[O-])s3)C2=O)cc1,"inconclusive: 56.2 µM [inhibitor, partial curve]"
10,C=CCn1c(CSc2ccccc2[N+](=O)[O-])n[nH]c1=S,"inconclusive: 44.7 µM [inhibitor, partial curve]"
11,O=C1NC(=O)N(Cc2ccccc2)C(=O)/C1=C\C=C\c1ccco1,active: 56.2 µM
12,CCOP(=O)(OCC)/C(C#N)=C/c1ccoc1,inactive
13,CN(C(=O)Oc1cccc2cccnc12)c1ccccc1,inactive
14,O=C1NC(=O)N(Cc2ccco2)C(=O)/C1=C\c1ccc(-c2ccc(F)cc2)o1,"inconclusive: 39.8 µM [inhibitor, partial curve]"
15,O=C1NC(=O)N(c2cccc(Cl)c2)C(=O)/C1=C\c1ccc(Sc2nc3ccccc3[nH]2)o1,active: 44.7 µM
16,CCOC(=O)c1c(C)n(Cc2ccccc2)c2ccc(O)cc12,"inconclusive: 31.6 µM [inhibitor, partial curve, poor fit]"
17,O=C(CCc1ccccc1)N1Cc2cc(N3CCOCC3)ccc2-n2nncc2C1,"inconclusive: 100 µM [inhibitor, single point]"
18,CC(=O)[C@H]1CC[C@H]2[C@@H]3CC=C4C[C@@H](OS(=O)(=O)O)CC[C@]4(C)[C@H]3CC[C@]12C,"inconclusive: 44.7 µM [inhibitor, partial curve]"
19,COC(=O)C(O)(c1ccc(N(C)C(=O)OC(C)C)cc1)C(F)(F)F (stereo not drawn),inactive
20,CC(Cc1ccc(O)cc1)NCC(O)c1ccc(O)c(O)c1 (stereo not drawn),"inconclusive: 44.7 µM [inhibitor, full curve, poor fit]"
21,COc1cc2c(cc1OC)-c1c(OC)c(OC)cc3c1C(C2)N(C)CC3 (stereo not drawn),"inconclusive: 35.5 µM [inhibitor, full curve]"

row,SMILES,Potency
1,COc1ccc(/C=C2\C(=O)NC(=O)N(CCC3=CCCCC3)C2=O)c(OC)c1,"inconclusive: 70.8 µM [inhibitor, single point]"
2,COC(=O)C1=C(c2ccc(OCc3ccccc3)c(F)c2)C[C@@H]2CC[C@H]1N2C,inactive
3,N#CCCCCC#N,"inconclusive: 100 µM [inhibitor, single point]"
4,N[C@@H](Cc1c[nH]c2ccccc12)c1nnc(SCc2ccc(Cl)cc2)o1,"inconclusive: 89.1 µM [inhibitor, partial curve]"
5,COC(=O)C1CN(C#N)N(c2ccc(Cl)cc2)C12c1ccccc1-c1ccccc12 (stereo not drawn),"inconclusive: 50.1 µM [inhibitor, partial curve]"
6,CCOP(=S)(OCC)Oc1nc(Cl)c(Cl)cc1Cl,inactive
7,O=C(O)Cn1cc(/C=C2\C(=O)NC(=O)N(Cc3ccco3)C2=O)c2ccccc21,"inconclusive: 15.8 µM [inhibitor, full curve, poor fit]"
8,C[C@H](CO)N1C[C@H](C)[C@@H](CN(C)C(=O)Nc2ccc(C(F)(F)F)cc2)Oc2c(NS(=O)(=O)c3cccs3)cccc2C1=O,"inconclusive: 89.1 µM [inhibitor, single point]"
9,O=C1C(=O)c2cccc3cccc1c23,inactive
10,O=C1NC(=O)C(=Cc2ccc(OCCOc3ccc([N+](=O)[O-])cc3)cc2)C(=O)N1,"inconclusive: 56.2 µM [inhibitor, partial curve]"
11,CCN(c1ccc(C(O)(C(=O)OC)C(F)(F)F)cc1)S(=O)(=O)c1ccc(C)cc1 (stereo not drawn),"inconclusive: 50.1 µM [inhibitor, partial curve, poor fit]"
12,Cc1cc2oc(=O)cc(-c3cc4ccccc4o3)c2cc1OC(=O)N(C)C,inactive
13,CCCCn1nnnc1C(C1CC1)N1CCC(n2c(=O)[nH]c3ccccc32)CC1 (stereo not drawn),"inconclusive: 79.4 µM [inhibitor, single point]"
14,CC1CCCCC1n1c(-c2cccnc2)n[nH]c1=S (stereo not drawn),"inconclusive: 100 µM [inhibitor, single point]"
15,Clc1ccc(C(c2ccc(Cl)cc2)n2cc[n+](CC(OCc3ccc(Cl)cc3Cl)c3ccc(Cl)cc3Cl)c2)cc1 (stereo not drawn),"inconclusive: 50.1 µM [inhibitor, partial curve]"
16,CN1CC[C@@]2(C)c3cc(O)ccc3N(C)C2O1 (stereo partly drawn),"inconclusive: 100 µM [inhibitor, single point]"
17,Cc1cc(O)c2c(c1)C(=O)C13C(=C2O)C(=O)[C@H]2[C@@H](O)[C@@H]1[C@H]1[C@H](O)[C@@H]3C(=O)C3=C(O)c4c(O)cc(C)cc4C(=O)C312 (stereo partly drawn),"inconclusive: 44.7 µM [inhibitor, partial curve, poor fit]"
18,CCOP(=O)(OCC)C(Cc1ccccc1)N=C(c1ccccc1)c1ccccc1 (stereo not drawn),"inconclusive: 44.7 µM [inhibitor, partial curve]"
19,C[n+]1c(-c2ccccc2)cc(CCCCc2cc(-c3ccccc3)[n+](C)c(-c3ccccc3)c2)cc1-c1ccccc1,"inconclusive: 56.2 µM [inhibitor, partial curve]"
20,COC(=O)[C@@H]1[C@@H](C(=O)OC)C2(c3ccccc3-c3ccccc32)N(c2ccc(Cl)cc2)N1C#N,inactive
21,COc1cc(Cl)c(C)cc1NC(=O)CCCn1c(=O)oc2ccccc21,"inconclusive: 100 µM [inhibitor, single point]"
